Measured values reported in PubChem BioAssay AID894 (National Center for Advancing Translational Sciences (NCATS), 2007).
In all, about 150,000 compounds went through this assay and about 6,500 (4.3%) were called active. The shares of active, inactive and inconclusive entries below differ from those in the screen. The call rests on the fitted dose curve; in most records, active means well fitted inhibition curve with a large enough effect (not every such curve was filed as active); inconclusive means small, poorly fitted or top-dose-only effect, or another doubt; inactive means no such curve, though single readings can be large or run the other way. No potency is given beside an inconclusive call; the fits are too rough. Some compounds were tested as several samples or in several runs, with calls that do not always agree.
On the % scale 0 is the no-effect control and ±100 the full control effect; potency means the concentration at half of the fitted maximal effect; tags describe the fitted curve by direction and shape.

What follows are compounds tested against 15-hydroxyprostaglandin dehydrogenase [NAD(+)] (Homo sapiens) (UniProt P15428) (assay: qHTS Assay for Inhibitors of HPGD (15-Hydroxyprostaglandin Dehydrogenase)). Conditions: purified HPGD, NADH fluorescence kinetic, PGE2 substrate; activity change, negative = inhibition: hits give low values.
Chain of UniProt P15428 (P15428 whole entry, looked up): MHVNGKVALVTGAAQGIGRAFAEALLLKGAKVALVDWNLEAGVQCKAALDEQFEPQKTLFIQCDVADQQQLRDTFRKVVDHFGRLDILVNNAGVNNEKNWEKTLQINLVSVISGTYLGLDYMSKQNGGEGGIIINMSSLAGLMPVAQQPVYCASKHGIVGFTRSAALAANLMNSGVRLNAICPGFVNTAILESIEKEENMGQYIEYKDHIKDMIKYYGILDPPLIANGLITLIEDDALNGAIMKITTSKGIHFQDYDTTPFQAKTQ
Summary of the method: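 20 nM HPGD preincubated 15 min at room temperature with compound in 50 mM Tris-HCl pH 8, 0.01% Tween 20. Started with 1 mM NAD+ and 30 uM prostaglandin E2; NADH fluorescence (360/450 nm) read 5 times over 30-s intervals, last minus first.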
In the case of CC(C)OCCCNc1nc2c(-c3ccccc3)nnn2c2ccccc12, the Potency is reported as inconclusive [inhibitor, partial curve]. CCOC(=O)COc1ccc(-c2nnc(-c3ccccc3)o2)cc1 was tested, and the Potency was inconclusive [inhibitor, full curve]. In the case of CC1(C)S[C@@H]2[C@H](NC(=O)[C@@H](N)c3ccccc3)C(=O)N2[C@H]1C(=O)O[C@H]1OC(=O)c2ccccc21, the Potency is reported as inconclusive [inhibitor, partial curve, poor fit]. In the case of Cc1ccc(NC(=O)N2CCC(c3nc4c(nnn4Cc4cccc(Cl)c4)c(=O)[nH]3)CC2)cc1, the Potency is reported as active: 2 µM. With CCCCCn1c(Sc2nc3ccccc3s2)nc2c1c(=O)[nH]c(=O)n2C the activity change, negative = inhibition was inactive: -20.1%. O=C(NCc1cccc(F)c1)c1noc2c1CCCC2 was tested, and the Potency was active: 20 µM. For O=CNc1ccccc1, the activity change, negative = inhibition was inactive: -4.98%. In the case of O=C(CSc1nnc2c3ccccc3c3ccccc3c2n1)Nc1ccccc1, the activity change, negative = inhibition is reported as inactive: -10.4%. In the case of O=C1c2ccccc2C(=O)N1CCSc1n[nH]c(=S)s1, the Potency is reported as inconclusive [inhibitor, single point]. For Cc1ccc(CN2CCN(/N=C\C(Br)=C\c3ccccc3)CC2)cc1, the activity change, negative = inhibition was inactive: -17%. CCOC(=O)C1CCCN(c2ncnc3c2cnn3-c2ccc(Cl)cc2)C1 (configuration not stated) was tested, and the Potency was inconclusive [inhibitor, partial curve]. With CC(C)C(=O)N1CCN(c2nc(-c3ccccc3)c3c(c2C#N)CCCC3)CC1 the Potency was inconclusive [inhibitor, partial curve]. In the case of COCCN1C=C(C(=O)OC)C(c2ccccc2C(F)(F)F)C(C(=O)OC)=C1, the Potency is reported as inconclusive [inhibitor, partial curve]. With N/C(=N\OC(=O)CCCCCN1C(=O)c2ccccc2C1=O)c1ccccc1 the Potency was active: 12.6 µM. With Cc1ccc(N/C=C(\C#N)c2ccc(OCCCF)cc2)cc1 the Potency was inconclusive [inhibitor, partial curve]. COc1cccc(/C=N/NC(=O)c2cc3c(OC)c(OC)ccc3[nH]2)c1OC was tested, and the Potency was inconclusive [inhibitor, partial curve]. For COc1ccc(S(=O)(=O)Nc2nnc(C(C)(C)C)s2)cc1, the Potency was active: 10 µM. For COc1ccc(C2NC(=O)c3sc4nc(C)c(C(C)=O)c(-c5ccc(Cl)cc5)c4c3N2)cc1 (configuration not stated), the Potency was inconclusive [inhibitor, partial curve]. In the case of CC(C)(C)NC(=O)CSc1nc2ccc(NC(=O)CSc3nnc(N)s3)cc2s1, the Potency is reported as active: 31.6 µM. For COc1cc(/C=C/C(=O)Nc2ccncc2)cc(OC)c1OC, the Potency was inconclusive [inhibitor, partial curve]. In the case of COc1ccc(-c2noc(CCC(=O)NC3CCCCC3)n2)cc1OC, the Potency is reported as active: 35.5 µM. In the case of Cc1ccc(-c2nc(N3CCOCC3)sc2C(=O)N2CCCCC2)cc1, the activity change, negative = inhibition is reported as inactive: -0.21%. For COc1ccc(/C=C(/C#N)S(=O)(=O)c2ccc(C)cc2)cc1, the Potency was active: 25.1 µM. For CC[C@@H]1C(c2cccc(Cl)c2)=NN(c2ccccc2)[C@H]1C(=O)N1CCOC1=O, the Potency was inconclusive [inhibitor, partial curve]. COc1ccccc1N1CCN(C(=O)c2oc3cc(C)c(C)cc3c2C)CC1 was tested, and the Potency was inconclusive [inhibitor, partial curve]. For Cc1cc(=O)oc(C)c1C(=O)NCCCN1CCN(c2ccccc2F)CC1, the Potency was inconclusive [inhibitor, partial curve, poor fit]. O=C(COC(=O)Cc1ccc(Br)cc1)NC12CC3CC(CC(C3)C1)C2 was tested, and the activity change, negative = inhibition was inactive: -8.9%. In the case of COc1ccc(NC(=O)CSc2nc3c(c(=O)n2-c2ccccc2OC)SCC3)cc1, the activity change, negative = inhibition is reported as inactive: -5.1%. O=C(c1ccc(Cl)cc1)c1cnc2ccccn12 was tested, and the activity change, negative = inhibition was inactive: -11.5%. In the case of Cc1ncc(N=Nc2ccccc2)c(-c2ccccc2)n1, the activity change, negative = inhibition is reported as inactive: -19.4%. For Cc1ccc(Cn2c(=O)c3cccnc3n(CC(=O)Nc3cccc(C(F)(F)F)c3)c2=O)cc1, the Potency was inconclusive [inhibitor, partial curve]. For O=C(Nc1ccccc1N1CCCC1)c1cc2ccccc2o1, the activity change, negative = inhibition was inactive: -23.2%. With CC1=C(C(=O)N2CCCCC2)C(c2cccs2)C2=C(CCCC2=O)N1 (configuration not stated) the Potency was inconclusive [inhibitor, partial curve]. In the case of Oc1ccc(Cn2cc[nH]c2=S)cc1, the Potency is reported as inconclusive [inhibitor, single point]. CCCCNc1nc(C)nc2c1nc(-c1ccccc1)n2CC(C)(C)CN(C)C was tested, and the Potency was inconclusive [inhibitor, partial curve]. Cc1cccc(NC(=O)CS(=O)(=O)c2cn(C)c3ccccc23)c1C was tested, and the activity change, negative = inhibition was inactive: -10.8%. With COc1ccccc1Nc1nc(-c2cccc(N3C(=O)c4ccccc4C3=O)c2)cs1 the activity change, negative = inhibition was inactive: -9.13%. For CCn1c(N)c(C(=O)NCc2ccco2)sc1=S, the Potency was active: 22.4 µM. For COCC(=O)N1CCC2(CC1)CN(c1ccccn1)C2, the Potency was inconclusive [inhibitor, partial curve]. COc1ccc(/C(O)=C2/C(=O)C(=O)N(CCN3CCOCC3)C2c2ccc(C)cc2)cc1 (configuration not stated) was tested, and the activity change, negative = inhibition was inactive: -10.5%. With COc1ccc(COc2ccccc2C(=O)NCc2ccccc2)cc1F the Potency was active: 15.8 µM. In the case of COc1cc(OC)c2c(=O)c(-c3ccccc3)coc2c1, the Potency is reported as inconclusive [inhibitor, partial curve]. In the case of O=c1cc(-c2ccccc2)[nH]c2ccc(Cl)cc12, the activity change, negative = inhibition is reported as inactive: -8.42%. In the case of NC(=O)c1ccccc1NS(=O)(=O)Cc1ccc(Cl)cc1, the Potency is reported as inconclusive [inhibitor, partial curve]. With CCCC1=C(C(=O)OCC)C(c2c(C)nn(-c3ccccc3)c2Cl)C(C#N)=C(N)O1 (configuration not stated) the Potency was inconclusive [inhibitor, partial curve]. In the case of Cc1cc(NS(=O)(=O)c2ccc(NC(=O)c3cc(-c4ccccc4Cl)nc4ccccc34)cc2)no1, the activity change, negative = inhibition is reported as inactive: -24.4%. With O=C(CC1N=C2c3ccccc3N=C(SCc3ccc(Cl)cc3)N2C1=O)NCc1ccco1 (configuration not stated) the Potency was inconclusive [inhibitor, partial curve, poor fit]. For Cc1cc(C)c(COCc2cc(/C=N/O)c(C)cc2C)cc1/C=N/O, the Potency was active: 14.1 µM. In the case of Cc1nn(-c2ccccc2)c2sc(-c3nnc(SCC(=O)O)o3)cc12, the Potency is reported as inconclusive [inhibitor, partial curve]. In the case of CC(C)(C)c1ccc(C(=O)c2c[nH]c(C(=O)NCC3CCCO3)c2)cc1 (configuration not stated), the Potency is reported as active: 12.6 µM. In the case of CC(C)(C)C(=O)Nc1ccccc1C(=O)NCc1ccco1, the activity change, negative = inhibition is reported as inactive: -29.4%. CCN(CC)CCCn1c(-c2ccccc2)nc2c(NCc3ccccc3)nc(C)nc21 was tested, and the Potency was inconclusive [inhibitor, partial curve]. For Cc1ccc(S(=O)(=O)NN2C(=O)c3ccccc3NC2(C)C)cc1, the Potency was inconclusive [inhibitor, partial curve]. For O=P(O)(O)O[C@@H]1[C@H](O)[C@H](O)[C@@H](OP(=O)(O)O)[C@H](OP(=O)(O)O)[C@H]1O, the activity change, negative = inhibition was inactive: 0.0862%. Cc1cc(C2=NNC(=NC3CC3)SC2)c(C)n1-c1ccccc1F was tested, and the Potency was inconclusive [inhibitor, partial curve, poor fit]. With CCCCCCCCCS(=O)(=O)N/N=C/c1cccc([N+](=O)[O-])c1 the Potency was active: 20 µM. With CCC(C)Oc1cccc(C(=O)Nc2ccccc2N2CCOCC2)c1 (configuration not stated) the activity change, negative = inhibition was inactive: -17.9%. COc1ccc(/C=C2\SC(=O)N(CC(=O)NNC(=O)c3ccccc3O)C2=O)cc1OC was tested, and the Potency was inconclusive [inhibitor, partial curve]. For COc1ccc2c(c1)OC1(O)COc3cc(OC)c(OC)cc3C1=C2 (configuration not stated), the Potency was inconclusive [inhibitor, partial curve]. In the case of O=C(NC1CCCC1)c1cnn2c(C(F)(F)F)cc(-c3ccco3)nc12, the Potency is reported as inconclusive [inhibitor, partial curve]. In the case of COc1ccc(CNC(=O)c2cnc3scc(C)n3c2=O)cc1, the Potency is reported as inconclusive [inhibitor, partial curve]. Cc1ccc2nc(-c3ccc(NS(=O)(=O)c4ccc(F)cc4)cc3)sc2c1 was tested, and the Potency was inconclusive [inhibitor, partial curve]. With COc1ccc(Br)cc1C1SCCN1S(C)(=O)=O (configuration not stated) the activity change, negative = inhibition was inactive: -8.37%. In the case of O=C(Nc1ccc(C2CC2(Cl)Cl)cc1)c1ccccc1Br (configuration not stated), the Potency is reported as active: 15.8 µM. In the case of CCOC(=O)C1=C(Cc2ccc(OC)cc2)C(=O)c2ccccc2C1=O, the Potency is reported as active: 31.6 µM. In the case of Cc1ccc(S(=O)(=O)NCc2ccc3c(c2)cc(C)n3C)cc1, the activity change, negative = inhibition is reported as inactive: -7.5%. For N=C1C(c2nc3ccccc3s2)=C(O)CN1Cc1ccco1, the Potency was inconclusive [inhibitor, partial curve]. CC(C)c1ccc(-c2c(C#N)c(N)nc(SCC(=O)N3CCCCCC3)c2C#N)cc1 was tested, and the Potency was inconclusive [inhibitor, partial curve]. With CN(C)c1nc(-c2ccccc2)c2cnn(Cc3ccccc3)c2n1 the Potency was inconclusive [inhibitor, partial curve]. For Cc1cccc(C2Nc3ccccc3C(=O)N2c2ccccc2)n1 (configuration not stated), the Potency was inconclusive [inhibitor, partial curve]. COc1ccc2c(c1)OC/C(=C\c1ccc(OC)c(O)c1)C2=O was tested, and the Potency was active: 11.2 µM. In the case of Cc1ccc(O)c(N=Nc2ccccc2)n1, the Potency is reported as active: 22.4 µM.
